± gives the standard deviation of the averaged measurements. Some of the results follow.
tested on: PfAP2-EXP AP2 domain (GST-tagged); test: gcPBM binding intensity (ln(normalized median fluorescence intensity)); higher = stronger DNA binding
Outline: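 The highest Masliner-normalised natural-log median intensity across replicate spots of either probe orientation is reported as binding intensity. GST-tagged P. falciparum DNA-binding domains expressed in E. coli were applied for 1 h to an Agilent 4 × 180k array of primer-extended double-stranded 36-bp intergenic genomic probes plus negative controls, and bound protein was detected with Alexa488 anti-GST antibody and scanned at 488 nm.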

Sequence	gcPBM binding intensity (ln)
TTTATATTAATTGATGTGCACTGAAATATTTGTCCA [GTGCAC_site9655]	8.54 ± 0.22
ACCCTATAGGTAACTACACACCGCATATTGTTTACT [CACACA_site7436]	8.8 ± 0.55
TTATAAATAAAAAATACACACATATATTTATTTATA [CACACA_site6242]	8.11 ± 0.5
ATAATATATGAAAGTGGTACACAAAGGAAAATAAAA [XGTACX_site333]	9.14 ± 0.57
TGTAGTCTGGAGAAAAGTACACAGTATCCGGTAACT [XGTACX_site4934]	8.6 ± 0.39
AATAATAAATCAAACTGTACATATATTTTCAATCTA [XGTACX_site3344]	8.2 ± 0.33
TTTTTTTTTTTGTTCACACATATATATATATATATA [CACACA_site5376]	10.2 ± 0.37
TATACATACACATACACACATACACCCATACACATA [CACACA_site1746]	8.77 ± 0.45
TTCTTCTAATCCTTTTATCTCATTAAAAAAATATAA [CACACA_negctrl_site12]	8.56 ± 0.36
ACGTGTATTTATTTAGTGCACTTTATATTTTTTCTT [GTGCAC_site9426]	9.72 ± 0.49
GGTTATATATTTTTTGCACACCAAAAAAGAGAATAT [CACACA_site2731]	8.68 ± 0.3
ATCCTAATATTGAACTGTACCTTATATGTTATTATA [XGTACX_site1014]	8.77 ± 0.42
TATATATATATATATACACACATATATACATATATA [CACACA_site4043]	10.1 ± 0.38
AATACATATAATACAACACACAAGTAATATAAACCT [CACACA_site3597]	8.87 ± 0.53
GGATATAACAAACACACACACACATATATATATATT [CACACA_site4141]	8.59 ± 0.19
TTTAAATGAAAAAAAGGTACACAATATTATTCTTAT [XGTACX_site8612]	8.37 ± 0.33
AATACTTATTATGAAACACACACCAAAACTACATAA [CACACA_site270]	8.83 ± 0.69
AAGAAAAAAAAAAATATATATACATATATATATATA [TGCATGCA_negctrl_site485]	9.95 ± 0.23
AAAAAAAAAAAACACACACACACACTAGTATATAAA [CACACA_site4783]	8.53 ± 0.61
AATGTATATATATATATATATATATATATTTATTTA [CACACA_negctrl_site113]	8.43 ± 0.14
AAGAAAATAGAAAATACACACAGCAAACAGAGGAAT [CACACA_site3785]	9.1 ± 0.61
ATATATATATATTTATGTACATATATTTTTTTTTTT [XGTACX_site8558]	9.73 ± 0.28

Sequence	gcPBM binding intensity (ln)
ATGAAACATGTATATTGTACTCTGGATCAATTTAAT [XGTACX_site6413]	8.29 ± 0.31
ATATTTAATTAAAAGAGTACTTAAATAAAATAAATG [XGTACX_site2149]	8.43 ± 0.3
AAGCCTTAAAAGGAAAGTACGTATATATATATATAT [XGTACX_site8559]	10.1 ± 0.43
AATAAATAAATACATCTCAGTATATAAACAAACAAA [CACACA_negctrl_site1604]	8.62 ± 0.43
AAATTTATTATATATACATGCAATCATAAATAATGT [TGCATGCA_site539]	8.8 ± 0.3
TAAGTATAAAAAAATAGTACAATTATGAAATATCGT [XGTACX_site2529]	8.87 ± 0.52
GGTCTAACAACATGCGCACACACATGAATATTCATA [CACACA_site1539]	9.05 ± 0.13
TTTTTTTTTTTTTTATGTACACATCTAAAAAAAAGG [XGTACX_site2067]	8.34 ± 0.38
GCCCCCTAAAAAATTACACACGAAAAAAATGAATTT [CACACA_site9128]	9.91 ± 0.35
TTTAACAAGTTAAACACACATACATATATACATATA [CACACA_site2536]	8.31 ± 0.42
ATTTGTTCCTTGGGAGTTTACTTTTTTTTAATTTTA [CACACA_negctrl_site638]	8.74 ± 0.44
TTAAAAAAAAAACACACACACATACCCATATATATA [CACACA_site5768]	8.74 ± 0.33
TATAAAAATATATATATATATATATATATAATATGT [TGCATGCA_negctrl_site85]	8.54 ± 0.13
TTCTTTTTAATTAATACACACACACCCATATATATA [CACACA_site8719]	8.83 ± 0.42
AAAAAATTAGATTATGCACACACACTAATAAATAAT [CACACA_site8604]	8.62 ± 0.27
AACAAAATTGAAGGAACACACATACATATTTATATA [CACACA_site6227]	8.65 ± 0.55
CATATAAATACATGCACACAAAAATATCAATACATT [CACACA_site2392]	8.94 ± 0.29
TTTATTTAAGAAAAATGTACAGGTTCATTTCATAAT [XGTACX_site27]	8.2 ± 0.17
GAAAAATTAAAACCTACACACACATTTAAAAAAAAA [CACACA_site9005]	8.46 ± 0.49
ATAAATACATATGTGTGTACACATTATATATATATA [XGTACX_site1486]	9.68 ± 0.34
TATATATTACATACATGTACCCAAAAAAAAAAAAAA [XGTACX_site1168]	8.42 ± 0.48
ATATATATATAATCATCACACATGCAGCCCTGATGA [CACACA_site5500]	9.77 ± 0.19

Sequence	gcPBM binding intensity (ln)
GAATGAATACGTTTTACACACTTGAATCTAATTTCA [CACACA_site6593]	8.55 ± 0.38
ATTCTACTTTTATTTATTTATTTGTTTATATATATA [XGTACX_negctrl_site609]	9.12 ± 0.49
TTTTTTATTCATGTAACACACATTTAATTATGAATT [CACACA_site2706]	8.51 ± 0.43
AAAGAATTTGCATATACACACAAAAAAATATATACA [CACACA_site386]	8.6 ± 0.51
GTGTAGATATTGAAATGTACTCTCCATATAAAATAA [XGTACX_site4713]	8.38 ± 0.3
ATATATATATATATATGTACTTATTTATTTATATTA [XGTACX_site4646]	10.3 ± 0.39
TTACGATACTTTAGGTGTACACAAATATACATGAAT [XGTACX_site4322]	8.97 ± 0.33
TATAAATATAAATATACACACATATATATATATATA [CACACA_site1678]	9.99 ± 0.4
TTGCATTAATTTATGTGTACATATAAATTTTTATTT [XGTACX_site3060]	8.64 ± 0.3
ATCAGTCGGCAGGACAGTACACAGTAGCCAGAAAAT [XGTACX_site2550]	8.71 ± 0.45
CTTATAGGTCATTTCCTTGACCCCCTTTGTTGTACT [CACACA_negctrl_site551]	8.71 ± 0.33
TAAAAAAATATTACATGTACATAAAATATATATATA [XGTACX_site4633]	9.52 ± 0.26
CAATTATATAATTGAAGTACTAGGAAAGATATATAT [XGTACX_site5459]	9.01 ± 0.51
TTTAAAAAAAGCAGTACATGCAAAATAATAACAAGC [TGCATGCA_site392]	9.62 ± 0.23
AATTAAATTCGGTACTGTACATTTCAAAAATATACG [XGTACX_site48]	8.38 ± 0.38
CTTAAATTTTACTGAAGTACAAAATCGGTTCAATGA [XGTACX_site3292]	8.23 ± 0.42
GGGAAAAAAAAAAGCACACATACGTAAATATATAAC [CACACA_site226]	8.83 ± 0.57
TATACATATTTTTTTTGTACATATATAATATATATA [XGTACX_site2399]	8.48 ± 0.35
ATGTGTTAAAAATGCACACAAAAAAATATACATATA [CACACA_site295]	8.6 ± 0.42
ACATGTGAACATTCAATGCACACGATGTAATTATAC [CACACA_site14]	8.78 ± 0.31
ATATTATATATATACACACACACATGCATGCACCTA [CACACA_site106]	10.07 ± 0.099
TTTTTTAAATATATGGTGCATAGAAAGATATTATAC [GTGCAC_site9984]	8.9 ± 0.3

Sequence	gcPBM binding intensity (ln)
TCATTAAAAACTAAAAGTACTCAATATTATGAACAT [XGTACX_site7807]	8.54 ± 0.52
GGATTTATTATATATACACACATACAGATATATATA [CACACA_site5222]	8.48 ± 0.3
TGTAGAAATGGGTGCACACACATATAAAATCTATAT [CACACA_site7224]	9.25 ± 0.51
TAAAAAAATAAATATACACACATATATATATATATA [CACACA_site1089]	10.2 ± 0.29
CATATATATTTGTTCACACACACACTAGAAAAAAAA [CACACA_site5380]	8.72 ± 0.59
ATAAAAAATAAAATAAATAAAAAATATTTACCCTTA [TGCATGCA_negctrl_site396]	7.95 ± 0.44
ATATTGTAGATATTGTGTACATATTTTACAACTTTT [XGTACX_site7621]	8.41 ± 0.15
TATGTACACCCATATACACACCTCTATAATATATAT [CACACA_site4563]	8.86 ± 0.43
AAACAAAATTTATTTCAAAGTTAATAATTTTTATGT [CACACA_negctrl_site232]	7.91 ± 0.47
ACATCATATTAAGAAAGTACAAAAAGAGAACATATA [XGTACX_site1268]	8.99 ± 0.33
TTGTTCGATATATGCACACAGTTTTGTTATTTTTCC [CACACA_site4972]	8.89 ± 0.41
ATGAATAAATAGGTCACACACAAATATATATAAATA [CACACA_site2416]	8.87 ± 0.47
CACTACACTGTTAATAGTACATATATTTAAAAAAAA [XGTACX_site7371]	8.37 ± 0.35
CACACCCACCAACACACACACAAAAAAAAAAAGAAA [CACACA_site500]	8.41 ± 0.63
ATATTTTATTTTAATACACACAAGTTATATAATCAC [CACACA_site780]	8.41 ± 0.36
AAAAGGTATAGAAACACACACACGTGAATATAGTTT [CACACA_site1905]	8.73 ± 0.54
AAAAAAAACGGACACACACACATAAATATATATAAA [CACACA_site4260]	9.02 ± 0.4
ACATATGTTTTATGTAGTACTTATTTATTATTATAT [XGTACX_site7528]	8.74 ± 0.27
AAAAAAAAAAAAAGTGCACACATAAAAATATGATCT [CACACA_site8090]	8.85 ± 0.18
TACAAATTTATATAAAGTACAAAAAATAATAAAAAT [XGTACX_site7355]	8.92 ± 0.52
TCAAATAATAAGTATGCATGCTATATTTATATATAC [TGCATGCA_site920]	9.02 ± 0.18
AAACGTACATAATACACACACATGTATACCTATAAA [CACACA_site7051]	8.71 ± 0.3

Reference: the supplement of paper PMC11417369
